{"source": "paper PMC4336329", "about": "(PLoS ONE, 2015)", "note": "Hit rate of the full screen: of about 310,000 compounds, about 2,200 (0.71%) showed an effect of 50% or more. The effect is printed as a negative number. Some of the results follow.", "data": [{"target": "human ether-à-go-go-related gene (hERG) potassium channel (human, UniProt Q12809)", "sequence (Q12809 whole entry, looked up)": "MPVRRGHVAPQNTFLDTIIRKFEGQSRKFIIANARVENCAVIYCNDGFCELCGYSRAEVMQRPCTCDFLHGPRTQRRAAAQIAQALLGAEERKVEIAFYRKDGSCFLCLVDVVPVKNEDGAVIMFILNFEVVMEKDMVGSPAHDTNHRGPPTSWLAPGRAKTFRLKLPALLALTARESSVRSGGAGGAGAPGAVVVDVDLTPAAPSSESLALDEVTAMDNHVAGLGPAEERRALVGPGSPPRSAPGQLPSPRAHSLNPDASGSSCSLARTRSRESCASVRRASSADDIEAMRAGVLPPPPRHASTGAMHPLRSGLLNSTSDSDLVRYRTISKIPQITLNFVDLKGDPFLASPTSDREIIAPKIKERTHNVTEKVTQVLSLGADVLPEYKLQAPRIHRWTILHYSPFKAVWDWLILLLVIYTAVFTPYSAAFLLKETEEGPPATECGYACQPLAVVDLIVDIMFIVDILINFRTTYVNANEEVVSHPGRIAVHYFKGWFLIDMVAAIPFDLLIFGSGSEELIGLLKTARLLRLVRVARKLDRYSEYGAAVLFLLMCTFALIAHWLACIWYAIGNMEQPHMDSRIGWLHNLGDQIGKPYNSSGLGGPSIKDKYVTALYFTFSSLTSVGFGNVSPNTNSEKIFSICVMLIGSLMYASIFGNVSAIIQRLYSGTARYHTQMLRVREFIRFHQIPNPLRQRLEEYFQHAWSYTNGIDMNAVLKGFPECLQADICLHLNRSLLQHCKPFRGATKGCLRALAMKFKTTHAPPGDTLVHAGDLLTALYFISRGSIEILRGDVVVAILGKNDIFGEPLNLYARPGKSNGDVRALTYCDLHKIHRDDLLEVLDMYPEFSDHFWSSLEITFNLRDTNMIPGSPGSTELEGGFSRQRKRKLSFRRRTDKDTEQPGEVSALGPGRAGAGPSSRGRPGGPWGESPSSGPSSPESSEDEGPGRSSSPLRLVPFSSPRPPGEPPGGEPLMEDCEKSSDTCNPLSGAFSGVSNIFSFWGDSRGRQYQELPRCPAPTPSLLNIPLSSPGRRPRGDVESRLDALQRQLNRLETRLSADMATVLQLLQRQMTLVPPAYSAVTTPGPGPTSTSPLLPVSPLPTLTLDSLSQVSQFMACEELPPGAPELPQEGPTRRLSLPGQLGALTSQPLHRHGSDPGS", "assay": "primary screen, population patch clamp on CHO cells stably expressing hERG", "units": {"hERG current change (%, negative = inhibition) at 1uM": "%"}, "values": [{"smiles": "Cc1ccc(SCc2cc(=O)[nH]c(N3CCN(C)CC3)n2)cc1", "hERG current change (%, negative = inhibition) at 1uM": -3.41}, {"smiles": "CCS(=O)(=O)Nc1cccc(C2=NN(S(=O)(=O)CC)C(c3ccccc3)C2)c1", "note": "(centres unmarked)", "hERG current change (%, negative = inhibition) at 1uM": 1.13}, {"smiles": "COc1cc(NC(=O)CSc2nnc(C)s2)cc(OC)c1OC", "hERG current change (%, negative = inhibition) at 1uM": 7.36}, {"smiles": "O=S1(=O)CCO[C@H]2Cc3ccccc3[C@H]2N1Cc1cccc(Cl)c1", "hERG current change (%, negative = inhibition) at 1uM": -0.829}, {"smiles": "COc1ccc(OC)c2[nH]c(=O)c(CCNC(=O)c3ccc(S(=O)(=O)N4CCCCC4)cc3)cc12", "hERG current change (%, negative = inhibition) at 1uM": 5.9}, {"smiles": "O=C(CCC(=O)N1CCc2ccccc21)Nc1ccccc1", "hERG current change (%, negative = inhibition) at 1uM": 3.36}, {"smiles": "COc1cccc(NC(=O)c2sc3nc4n(c(=O)c3c2C)CCC4)c1", "hERG current change (%, negative = inhibition) at 1uM": 13}, {"smiles": "CS(=O)(=O)N(CC(=O)NCc1ccc2c(c1)OCO2)Cc1ccccc1", "hERG current change (%, negative = inhibition) at 1uM": -1.52}, {"smiles": "CSc1ncccc1-c1nc2ccccc2[nH]1", "hERG current change (%, negative = inhibition) at 1uM": 14.3}, {"smiles": "CC(=O)c1ccc(S(=O)(=O)N(C)CC(=O)NCc2ccco2)cc1", "hERG current change (%, negative = inhibition) at 1uM": 13.4}, {"smiles": "O=C(NC1CCCCNC1=O)c1ccccc1", "note": "(centres unmarked)", "hERG current change (%, negative = inhibition) at 1uM": 10.8}, {"smiles": "COc1ccccc1-c1nc2ccccc2c(=O)n1O", "hERG current change (%, negative = inhibition) at 1uM": 16.2}, {"smiles": "Cc1cc(C)c(C#N)c(SCC(=O)Nc2ccc3c(c2)OCO3)n1", "hERG current change (%, negative = inhibition) at 1uM": 12.9}, {"smiles": "Cc1cccc(OCCOc2ccccc2C=C(C#N)C#N)c1", "hERG current change (%, negative = inhibition) at 1uM": 9.22}, {"smiles": "CSCC[C@H](NC(=O)[C@@H]1CSC2c3ccccc3C(=O)N21)C(=O)N1CCC[C@H]1CO", "note": "(some centres unmarked)", "hERG current change (%, negative = inhibition) at 1uM": 7.38}, {"smiles": "N#Cc1c(-c2cccc([N+](=O)[O-])c2)nc2n(c1=O)CCS2", "hERG current change (%, negative = inhibition) at 1uM": 14.6}, {"smiles": "CCCCCn1ccc(=N)cc1.I", "hERG current change (%, negative = inhibition) at 1uM": 9.03}, {"smiles": "C#CC[N+](CC)(CC)CC#Cc1ccccc1.[Br-]", "hERG current change (%, negative = inhibition) at 1uM": 13.1}, {"smiles": "C=CCn1c(=N)n(CC(=O)c2ccc(Br)cc2)c2ccccc21", "hERG current change (%, negative = inhibition) at 1uM": 0.719}, {"smiles": "CC(=O)c1cccc(NC(=S)NC(=O)c2cccc(C)c2)c1", "hERG current change (%, negative = inhibition) at 1uM": 17.2}, {"smiles": "CCOc1ccc(C(CC(=O)O)NC(=O)C(c2ccccc2)c2ccccc2)cc1OC", "note": "(centres unmarked)", "hERG current change (%, negative = inhibition) at 1uM": 7.46}, {"smiles": "Cc1cc(C)cc(C(=O)NCC(=O)OCC(=O)NCC(F)(F)F)c1", "hERG current change (%, negative = inhibition) at 1uM": 14.5}, {"smiles": "COc1ccc(NC(=O)CN(C)C(=O)c2cccc(-n3cccc3)c2)cc1", "hERG current change (%, negative = inhibition) at 1uM": 5.91}, {"smiles": "N#Cc1nc(-c2ccccc2)oc1NCC1CCCO1", "note": "(centres unmarked)", "hERG current change (%, negative = inhibition) at 1uM": 11.1}, {"smiles": "CCCc1cc(=O)[nH]c(SCc2csc(-c3ccccc3)n2)n1", "hERG current change (%, negative = inhibition) at 1uM": 10.8}, {"smiles": "O=C(NCc1ccco1)c1cc(S(=O)(=O)N2CCCc3ccccc32)ccc1Cl", "hERG current change (%, negative = inhibition) at 1uM": -9.08}]}]}
